Residue numbers refer to the chain shown, from its start. Entries after “also recorded” stand apart in the source; their conditions may differ.
B1: A1X4: humanized IgG, variable regions SEQ ID NOs: 29/37; HC SEQ ID NO: 53, LC SEQ ID NO: 54 (antibody)
heavy: QVQLQESGPGLVKPSETLSLTCTVSGFSLTSYGVNWIRQPPGKGLEWIGVMWAGGSTNYNSALMSRVTISVDTSKNQFSLKLSSVTAADTAVYYCARDENWDGAWFAYWGQGTLVTVSSASTKGPSVFPLAPSSKSTSGGTAALGCLVKDYFPEPVTVSWNSGALTSGVHTFPAVLQSSGLYSLSSVVTVPSSSLGTQAYICNVNHKPSNTKVDKKVG[left out - human IgG1 Fc with K334R T359A (EU numbers)]
light: DIVMTQSPDSLAVSLGERATINCKSSQSLLNSGTRKNYLAWYQQKPGQPPKLLISWASSRESGVPDRFSGSGSGTDFTLTISSLQAEDVAVYYCKQSYNLFTFGGGTKVEIKRTVAAPSVFIFPPSDEQLKSGTASVVCLLNNFYPREAKVQWKVDNALQSGNSQESVTEQDSKDSTYSLSSTLTLSKADYEKHKVYACEVTHQGLSSPVTKSFNRGEC
B2: A1,2X4: humanized IgG, variable regions SEQ ID NOs: 40/37; HC SEQ ID NO: 51, LC SEQ ID NO: 52 (antibody)
heavy: B1 heavy with V67L, V71K
light: B1 light

Key:
[1] = target: T1, human Trop-2ECD-6His (Homo sapiens, UniProt P09758); test: Cross-reactivity ELISA, human Trop-2; assay type: binding; conditions: plate coated with 1 µg/mL antigen
T1 construct: made in house; host or cells: human 293 cell line
T1 sequence (P09758 with tags, fused parts or gaps): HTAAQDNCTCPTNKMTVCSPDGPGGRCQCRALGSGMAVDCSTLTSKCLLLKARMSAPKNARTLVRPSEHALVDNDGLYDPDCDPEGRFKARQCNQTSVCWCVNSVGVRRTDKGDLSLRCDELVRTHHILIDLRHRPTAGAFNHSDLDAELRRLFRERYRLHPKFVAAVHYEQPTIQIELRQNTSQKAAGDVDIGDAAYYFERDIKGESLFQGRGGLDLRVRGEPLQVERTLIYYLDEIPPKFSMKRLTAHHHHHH
Procedure: (§1) Cross-reactivity of chimeric IgG #118-2-5 and #125-1-5 to the Trop-2 antigens from different species was assessed by ELISA. In this experiment, a microtiter plate was coated overnight at 4° C. with 50 µL/well of 1 µg/mL human Trop-2ECD-6His, mouse Trop-2-His, cynomolgus Trop-2-His, human EPCAM-His, and a non-related protein. The plate was washed and blocked for 1 hr at 37° C., and then washed with wash buffer. Purified chimeric IgGs appropriately diluted in PBS were added to wells and incubated for 1 hr at 37° C. After washing, bound antibodies were detected using HRP-conjugated goat-anti-human IgG Ab. Color development and absorbance at OD450 nm were read. A non-specific mock mouse IgG and a non-specific mock human IgG were included as the negative controls, while anti-His antibody was used as a positive control.
(§2) The cross-reactivity of purified IgGs to the Trop-2 antigens from different species was tested by ELISA. In this experiment, a microtiter plate was coated overnight at 4° C. with 50 µL/well of 1 µg/mL human Trop-2ECD-6His, mouse Trop-2-His, cynomolgus Trop-2-His, human EPCAM-His, and a non-related protein. The plate was washed and blocked for 1 hr at 37° C., and then washed with wash buffer. […] After washing, bound antibodies were detected using HRP-conjugated goat-anti-human IgG antibody. Color development and absorbance at OD450 nm were read. […]

[2] = tested on: cynomolgus Trop-2-His; test: Cross-reactivity ELISA, cynomolgus Trop-2; assay type: binding; conditions: plate coated with 1 µg/mL antigen
Procedure: as §1, §2

[3] = target: T2, mouse Trop-2-His (Mus musculus, UniProt Q8BGV3); test: Cross-reactivity ELISA, mouse Trop-2; assay type: binding; conditions: plate coated with 1 µg/mL antigen
T2 sequence (Q8BGV3 25-317): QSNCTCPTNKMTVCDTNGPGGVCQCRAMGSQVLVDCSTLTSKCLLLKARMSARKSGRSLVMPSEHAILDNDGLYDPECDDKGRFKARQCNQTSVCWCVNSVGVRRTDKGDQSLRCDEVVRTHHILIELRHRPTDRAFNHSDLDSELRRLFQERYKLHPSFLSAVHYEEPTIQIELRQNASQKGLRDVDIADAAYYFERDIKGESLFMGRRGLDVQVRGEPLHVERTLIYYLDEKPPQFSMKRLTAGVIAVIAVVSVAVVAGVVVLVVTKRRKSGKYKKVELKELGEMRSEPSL
Procedure: as §1, §2

[4] = target: T3, human EPCAM-His (Homo sapiens, UniProt P16422); test: Cross-reactivity ELISA, human EPCAM; assay type: binding; conditions: plate coated with 1 µg/mL antigen
T3 sequence (P16422 24-314): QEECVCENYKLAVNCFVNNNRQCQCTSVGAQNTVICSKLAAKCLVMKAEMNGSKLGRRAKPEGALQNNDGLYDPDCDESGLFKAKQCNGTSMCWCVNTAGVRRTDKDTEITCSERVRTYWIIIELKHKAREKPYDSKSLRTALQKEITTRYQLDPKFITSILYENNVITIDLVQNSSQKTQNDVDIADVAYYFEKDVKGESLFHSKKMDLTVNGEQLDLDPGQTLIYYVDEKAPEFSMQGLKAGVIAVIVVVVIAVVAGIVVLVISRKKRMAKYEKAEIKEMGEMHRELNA
Procedure: as §1, §2

[5] = tested on: non-related protein; test: Cross-reactivity ELISA, non-related protein; assay type: binding; conditions: plate coated with 1 µg/mL protein
Procedure: as §1, §2

[6] = target: T1, human Trop-2ECD-6His; test: Octet Bio-Layer Interferometry kinetics assay; assay type: binding; conditions: for binding affinity to huTrop-2 compared to benchmark hRS7: in words, Octet kinetics assay
Description: The binding affinity of human IgGs to their antigens can be determined by Octet system based on Bio-Layer Interferometry (BLI) technique. BLI is a layer of molecules attached to the tip of an optic fiber which creates an interference pattern at the detector, any change in the number of molecules bound causes a measured shift in the pattern. Octet system enables real-time analysis for determination of affinity and kinetics from biomolecular interactions in 96-well microplates. Briefly, target antigen can be diluted and loaded to a 96-well microplate. Antibody is then diluted and added to the assigned wells. The plate is put in the Octet system and assay is started. The data can be analyzed using the Octet Data Acquisition Software (fortebio data analysis 10.0) to calculate an association rate constant Kon, a dissociation rate constant Koff, and a dissociation constant Kd (Kd = Koff/Kon).
The binding affinity of the purified anti-Trop-2 IgGs to human Trop-2 protein were determined by Octet system based on Bio-Layer Interferometry (BLI) technique. BLI is a layer of molecules attached to the tip of an optic fiber which creates an interference pattern at the detector, any change in the number of molecules bound causes a measured shift in the pattern. Octet system enables real-time analysis for determination of affinity and kinetics from biomolecular interactions in 96-well microplates. Briefly, Trop-2 antigen (human Trop-2ECD-6His) was diluted to concentrations of 50, 25, 12.5, 6.25, and 3.125 nM, and loaded to a 96-well microplate. A1X4 or A1,2X4 antibody was diluted and added to the assigned wells at a final concentration 8 µg/ml. The plate was put in the Octet system and assay was started. The data was analyzed using the Octet Data Acquisition Software (fortebio data analysis 10.0) to calculate an association rate constant Kon, a dissociation rate constant Koff, and a dissociation constant Kd (Kd = Koff/Kon).

[7] = tested on: Trop-2 postive breast cancer cells MDA-MB-468; test: Internalization of humanized anti-Trop-2 antibodies by flow cytometry (Example 7); assay type: cell-based, human; conditions: in words; 400, 1000, 3000, 10000 ng/ml; 2 hours at 37° C.
Procedure: Internalizationi and degradation of anti-Trop-2 antibodies was measured by flow cytometry. In this study, fluorescent-conjugated secondary antibodies were used to detect the primary antibodies left on after internalization.
Trop-2 postive breast cancer cells MDA-MB-468 were seeded in 1 × 10^5 cell/well. Next, either hRS7, or A1X4, or A1,2X4 antibody was added to cells in FACS buffer at concentrations of 400, 1000, 3000, or 10000 ng/ml, respectively, and incubated for 30 minutes at 4° C. After incubation, the cells were washed three times with FACS buffer to removed unbound antibody. The cells were then incubated at 37° C. with 5% CO2 for antibody internalization. After 2 hours, the cells were dissociated with Trypsin and stained with fluorescent-conjugated goat anti-human IgG secondary antibodies for 30 minutes on ice in dark before being analyzed using Beckman flow cytometry system. The fluorescent intensity and cell binding percentage at each time point were analyzed by Beckman flow cytometric software. The amount of anti-Trop-2 antibodies internalized into cells at each concentration was determined using the following formula: % internalization rate = 100 × (MFI4°C- MFI37°C) / MFI4°C

Row | Molecule | binding to human Trop-2 antigen (ELISA, OD450 nm) [1] | binding to cynomolgus Trop-2 antigen (ELISA, OD450 nm) [2] | recognition of mouse Trop-2 (ELISA, OD450 nm) [3] | recognition of hEPCAM (ELISA, OD450 nm) [4] | recognition of the non-related protein (ELISA, OD450 nm) [5] | Kd ([6]; Table 14, antibody 8 µg/ml, antigen 3.125-50 nM) [nM] | Koff(⅟S) ([6]; Table 14, dissociation rate constant) | binding affinity to huTrop-2 compared to benchmark hRS7 [6] | internalization rate (FIG. 4) [7]
1 | B1 | able to bind | able to bind | did not recognize | did not recognize | did not recognize | 2.11 | 5.69E-04 ⅟S | moderate binding affinity | the most efficient one; also recorded: higher internalization rate compared to benchmark antibody hRS7
2 | B2 | able to bind | able to bind | did not recognize | did not recognize | did not recognize | – | – | moderate binding affinity | higher internalization rate compared to benchmark antibody hRS7

From patent US20230235080A1, “TROPHOBLAST CELL-SURFACE ANTIGEN-2 (TROP-2) ANTIBODIES” (Bionecure Therapeutics, Inc., priority 2020, published 2023)
